Assay results reported in PubChem BioAssay AID1919013 (Molecular Pharmacology Branch, DTP, NCI, 2023).
A number of entries come with more than one value. This is not the full list of results. An entry can have further records. Values that stand side by side are repeats (runs, samples, wells, individuals or studies). Marks such as (2×) give the number of equal values in this list. A date in brackets names the month of the test.

Test system: LG0703-F498-PDC complex spheroid growth
Test: Anticancer human tumor LG0703-F498-PDC patient-derived lung adenocarcinoma cell line growth inhibition [AhR]
Conditions: for viability, T/C: stronger effect = lower value
Source text: Multicellular complex tumor spheroid response to aryl hydrocarbon receptor antagonists in combination with a variety of drugs and investigational agents in selected tumor cell lines
The current study was undertaken to assess response to aryl hydrocarbon receptor antagonists in combination with standard-of-care drugs and investigational agents in solid tumor complex spheroid models. Complex spheroids include a stromal component modeled by human endothelial cells (HUVEC) and fibroblasts modeled by human mesenchymal stem cells (MSCs). The concentration ranges selected for each drug and investigational agent were based upon clinically achievable concentrations if the clinical Cmax of the agent was known.
Compounds. The drugs and investigational agents: BAY 2416964 (NSC825713), GNF351 (NSC835774), CH-223191 (NSC835775), CPI-455 (NSC825282), aza-TdCyd (NSC777586), decitabine (NSC127716), belinostat (NSC758774), entinostat (NSC756642), pevonedistat (NSC761192), tazemetostat (NSC777109), talazoparib (NSC765396), olaparib (NSC753686), selinexor (NSC780203), nedisertib (M3814, NSC802822), bortezomib (NSC756655), venetoclax (NSC766270), doxorubicin (NSC123127), elimusertib (BAY189344, NSC800525), ceralasertib (AZD6738, NSC777638), TAK-243 (NSC785004), alisertib (NSC759677), etoposide (NSC141540), topotecan (NSC609699), eribulin (NSC707389), gemcitabine (NSC613327), carboplatin (NSC241240), cisplatin (NSC119875), and SN-38 (NSC673596) were obtained from the National Cancer Institute (NCI) Developmental Therapeutics Program Chemical Repository (32). The FDA-approved anticancer drug set is available from the Developmental Therapeutics Program at https://dtp.cancer.gov/organization/dscb/obtaining/available plates.htm. […] The stock solutions were prepared in dimethyl sulfoxide (DMSO, Sigma-Aldrich, St. Louis, MO, cat. D2650), except for the platinum compounds which were prepared in saline (Quality Biological, Gaithersburg, MD, cat. 114-055-101), at 800-fold the tested concentration and stored at -70 degrees C prior to their use. All drugs and investigational agents were tested over a range starting from a high concentration at or near the clinical Cmax and decreasing in half-log increments. If the clinical Cmax for an agent had not been determined, the highest concentration tested was 10 microM (Table 1).
Cell Culture. All cells were maintained in an incubator at 37 degrees C and 5% CO2 with 95% humidity. The PDC lines were cultured according to standard operating procedures established by the NCI PDMR (https://pdmr.cancer.gov). Briefly, all PDCs were thawed and cultured in Matrigel-coated flasks prepared with a working solution of 1X Ham's F-12 nutrient mix, without supplementation (Invitrogen, Waltham, MA, cat. 11765054), 100 U/mL penicillin-streptomycin (Invitrogen, cat. 15140122), and 2.5% Matrigel (Corning Inc., Corning, NY, cat. 354248) for the first three passages. All PDCs were cultured in complete DMEM/F-12 media containing advanced DMEM/F-12 (Invitrogen, cat. 12634028), 4.9% defined fetal bovine serum, heat inactivated (HyClone Laboratories Inc., Logan, UT, cat. SH30070.03HI), 389 ng/mL hydrocortisone (Sigma-Aldrich, cat. H4001), 9.7 ng/mL human EGF recombinant protein (Invitrogen, cat. PHG0313), 23.4 microg/mL adenine (Sigma-Aldrich, cat. A2786), 97.3 U/mL penicillin-streptomycin (Invitrogen, cat. 15140122), 1.9 mM L-glutamine (Invitrogen, cat. 25030081), and 9.7 microM Y-27632 dihydrochloride (Tocris Bioscience, Bristol, United Kingdom, cat. 1254). The PDCs were cultured in complete DMEM/F12 media without 10 microM Y-27632 dihydrochloride for at least two passages prior to the screen. The established cell lines NCI-H1341 and […] were cultured in DMEM/F-12, HEPES (Invitrogen, cat. 11330032), 5% defined fetal bovine serum (HyClone Laboratories Inc., cat. SH30070.03), ITS premix universal culture supplement [insulin (5 microg/mL), transferrin (5 microg/mL), and selenious acid (5 ng/mL)] […]
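Note: luminescence taken as a proxy for viable cell amount.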
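Throughout, for viability, T/C: percent of DMSO vehicle control where 100% means growth equal to vehicle.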

In the case of `Cc1ccccc1N=Nc1ccc(NC(=O)c2ccnn2C)c(C)c1`, the viability, T/C (compound alone 0.1 µM) is reported as 105, 95.7, 92.9, 92.5, 102, 100, 89.6, 89.7, 86.6, 110, 99.4, 90.7, 93.4 (2×), 85.8, 101, 91.3, 94.8, 90.3, 82.2%, the viability, T/C (compound alone 0.316 µM) is reported as 103 (2×), 93.6, 87.6, 97.8, 93, 83.5, 98.2, 95.9 (2×), 88.5, 93.2, 111, 88.8, 90.1, 93.7, 95.8, 85, 100, 85.5% and the viability, T/C (compound alone 10 µM) is reported as 85.5, 93, 87.2, 79.8, 86.8 (2×), 79, 91.3, 84.4, 89.5, 89.8, 94, 81.5, 78.8, 87.7, 79.7, 91, 88.2, 95, 67.3%.

`Cc1cncc(-c2nc(NCCc3c[nH]c4ccccc34)c3ncn(C(C)C)c3n2)c1` was tested, and the IC50 (combination with AhR antagonists, compound alone, run of 06/06/2022) was 3.37 µM and 2.2 µM and 3.1, 4.15, 3.82, 3.61, 4.23, 3.07, 2.79, 2.74, 2.59, 2.61, 4.01, 3.05, 2.67, 2.62, 1.59, 1.89, 4.98, 2.48, 2.58, 2.64, 2.51, 2.37 µM [2022-06], the viability, T/C (compound alone 0.1 µM) was 88.8, 101 (4×), 94.3, 89.3, 94.6, 93.7, 99.1, 84.9, 106, 91.2, 94.9, 110, 104, 117, 102, 93.4, 81.9% and the viability, T/C (compound alone 0.316 µM) was 92.5, 97.3, 95.8, 102, 110, 98, 105, 113, 99.9, 93.9, 94.9, 98.5, 89.1 (2×), 101, 109, 114, 116, 96.2, 92.3%. The viability, T/C (compound alone 1 µM) was 102 (2×), 111, 122, 97.6, 98.3, 103, 93.9, 98.5, 92.6, 114 (2×), 92.7, 104 (2×), 90, 99.9, 81.3, 90.3, 97.5% and the viability, T/C (compound alone 3.16 µM) was 49.1, 65.1, 59.7, 56.5, 66.6, 48.8, 44.7, 43, 41.1, 39.2, 62.5, 48.6, 53, 42.9, 40.2, 25.2, 3.41, 17.4, 81.9, 37.5, 38.3%.

With `CC(CO)NC(=O)c1cc(-c2ccc(Cl)cc2)nn(-c2cnn(C)c2)c1=O` (stereo unspecified) the viability, T/C (compound alone 0.1 µM) was 101, 91, 103, 96.7, 102 (2×), 94.4, 95.4, 90.9, 98.1, 90.7, 91.4, 99.1, 77.5, 80.2, 90, 95.1, 91.5, 89, 85.7%, the viability, T/C (compound alone 0.316 µM) was 87.8, 74.2, 109, 84.5, 93, 84.1, 88, 82.6, 89.7, 85.3, 97.5, 102, 89.2, 81.8, 91.8, 93.4 (2×), 94, 96.2, 83.5, 96.3% and the viability, T/C (compound alone 3.16 µM) was 87.6, 82.5, 83.9, 82.2, 84, 79.8, 68.5, 83.8, 74, 91.1, 90.3, 78.4, 83.5, 85.8, 87.8, 93.8, 78.7, 84.3, 91.6%.
